The results in this text go back to PMC4336329 (PLoS ONE, 2015).

Screen size: about 310,000 compounds; about 14,000 (4.5%) showed an effect of 50% or more. The effect is printed as a negative number. The list shows a part of the results.
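Note: peak tail current of the secondary pulse compared with the same well before compound.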

The assay deals with human ether-à-go-go-related gene (hERG) potassium channel (human, UniProt Q12809). Briefly: primary screen, population patch clamp on CHO cells stably expressing hERG.
Chain of human ether-à-go-go-related gene (hERG) potassium channel (Q12809 whole entry, looked up): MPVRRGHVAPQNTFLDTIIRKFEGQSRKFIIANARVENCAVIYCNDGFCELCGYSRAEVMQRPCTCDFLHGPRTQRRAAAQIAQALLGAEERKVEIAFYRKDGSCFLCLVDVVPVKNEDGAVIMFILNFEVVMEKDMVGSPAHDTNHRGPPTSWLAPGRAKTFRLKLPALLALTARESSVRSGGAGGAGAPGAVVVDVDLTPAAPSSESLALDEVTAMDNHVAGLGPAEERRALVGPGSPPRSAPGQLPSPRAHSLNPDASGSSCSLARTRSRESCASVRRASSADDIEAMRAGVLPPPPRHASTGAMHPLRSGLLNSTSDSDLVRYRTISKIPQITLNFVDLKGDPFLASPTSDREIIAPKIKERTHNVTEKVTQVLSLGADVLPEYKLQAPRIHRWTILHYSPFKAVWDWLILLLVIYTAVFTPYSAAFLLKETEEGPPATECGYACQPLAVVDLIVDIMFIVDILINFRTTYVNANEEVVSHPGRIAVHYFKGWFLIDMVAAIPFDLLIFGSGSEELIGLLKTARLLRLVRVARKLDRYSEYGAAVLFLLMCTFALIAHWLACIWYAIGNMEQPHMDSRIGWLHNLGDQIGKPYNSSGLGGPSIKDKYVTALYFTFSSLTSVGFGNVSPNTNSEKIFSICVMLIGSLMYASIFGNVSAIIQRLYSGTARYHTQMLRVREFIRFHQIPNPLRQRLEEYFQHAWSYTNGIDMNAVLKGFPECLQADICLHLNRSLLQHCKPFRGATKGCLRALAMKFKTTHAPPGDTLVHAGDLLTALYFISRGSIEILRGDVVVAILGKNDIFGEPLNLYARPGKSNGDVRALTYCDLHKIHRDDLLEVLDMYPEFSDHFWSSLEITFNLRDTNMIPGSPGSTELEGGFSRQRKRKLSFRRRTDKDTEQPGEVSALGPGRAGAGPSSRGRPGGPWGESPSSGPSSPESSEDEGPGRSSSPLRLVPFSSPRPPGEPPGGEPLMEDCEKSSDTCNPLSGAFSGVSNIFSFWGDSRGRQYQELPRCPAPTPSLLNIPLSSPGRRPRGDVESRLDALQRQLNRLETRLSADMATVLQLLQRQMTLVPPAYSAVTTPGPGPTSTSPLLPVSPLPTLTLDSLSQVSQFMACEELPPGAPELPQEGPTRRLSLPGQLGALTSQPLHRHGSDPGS
For the compound `Cc1onc(-c2ccccc2)c1C(=O)Nc1sccc1C#N`, the “hERG current change (%, negative = inhibition) at 10uM” value amounted to 7.27%.
Consider `CCOC(=O)NS(=O)(=O)c1ccc(CCNC(=O)c2cc(C)on2)cc1`, for which the “hERG current change (%, negative = inhibition) at 10uM” value is -3.31%.
`O=C(O)C(=O)O.Oc1ccc(Cl)cc1CNCC1CCCO1` (centres unmarked): the “hERG current change (%, negative = inhibition) at 10uM” value was -10.9%.
Take `CC1CCN(CCC(=O)N/N=C/c2ccc([N+](=O)[O-])cc2)CC1`: the “hERG current change (%, negative = inhibition) at 10uM” value is reported as -70%.
For the compound `CC(C)Cc1nnc(NC(=O)CCc2ccccc2)s1`, the “hERG current change (%, negative = inhibition) at 10uM” value came out at 7.49%.
Next, `O=C(NC1=NCCS1)C1CC2CCC1C2` (centres unmarked): 2.05%; `CC(OC(=O)c1ccc(-c2ccc([N+](=O)[O-])cc2)o1)C(=O)NC(N)=O` (centres unmarked): -13.4%; `Cc1cccc(C(=O)Nc2ccccc2C(=O)NCc2cccnc2)c1`: -11.6%.
With `CCOc1ccc(NC(=O)Nc2cc(-c3ccccc3)sc2C(=O)OC)cc1`, the “hERG current change (%, negative = inhibition) at 10uM” value is -4.41%.
For `Cc1c(-c2ccccc2)[n+](=O)c2c(n1[O-])CCCC2`, the “hERG current change (%, negative = inhibition) at 10uM” value came to 11.9%.
`Oc1ccc(CNc2ccccc2O)cc1`: the “hERG current change (%, negative = inhibition) at 10uM” value is -4.59%.
Next, `CC(=O)Nc1cccc(C(=O)NC2CCCc3c2cnn3-c2cc(C)cc(C)c2)c1` (centres unmarked): -0.832%; `Nc1nnn(Cc2ccccc2)n1`: 15.5%.
For the compound `COc1ccc(CCNC(=O)CCc2ccc(S(=O)(=O)NCC(C)C)cc2)cc1`, the “hERG current change (%, negative = inhibition) at 10uM” value came to 1.13%.
In the case of `Cc1cc(C)c(C#N)c(SCC(=O)Nc2nnc(-c3ccccc3)s2)n1`, the “hERG current change (%, negative = inhibition) at 10uM” value stood at 12.2%.
With `O=C(c1cc(-c2ccccc2O)on1)N1CCc2ccccc2C1`, the “hERG current change (%, negative = inhibition) at 10uM” value amounted to 9.31%.
With `CCN(CC)S(=O)(=O)c1ccc(S(=O)(=O)N2CCN(C(=O)c3ccco3)CC2)cc1`, the “hERG current change (%, negative = inhibition) at 10uM” value was 4.56%.
For the compound `Cc1nnc(NC(=O)COc2ccc3c(C)cc(=O)oc3c2)s1`, the “hERG current change (%, negative = inhibition) at 10uM” value is -3.8%.
Take `CCN(CC)CCNC(=O)CCn1nc(-c2ccc(Cl)cc2)ccc1=O`: the “hERG current change (%, negative = inhibition) at 10uM” value is listed as -34.4%.
`Br.O=C(CN1C2=NCCN2c2ccccc21)c1cccs1`: the “hERG current change (%, negative = inhibition) at 10uM” value is listed as -31.3%.
With `Cc1nc2cc(C(=O)OCC(=O)NC34CC5CC(CC(C5)C3)C4)ccc2n1-c1ccccc1`, the “hERG current change (%, negative = inhibition) at 10uM” value stood at 16.1%.
On to `O=c1[nH]c(=S)[nH]c(O)c1/C=N/N1CCOCC1`, for which the “hERG current change (%, negative = inhibition) at 10uM” value is recorded as 10%.
For the compound `O=c1cc(CSCc2ccc(Cl)cc2)[nH]c(=O)[nH]1`, the “hERG current change (%, negative = inhibition) at 10uM” value was found to be 0.409%.
For the compound `Cc1ccccc1Nc1nnc(SCC(=O)c2cc3ccccc3o2)s1`, the “hERG current change (%, negative = inhibition) at 10uM” value is reported as -4.7%.
Regarding `O=C(NCCCN1CCOCC1)c1ccc2c(=O)n(Cc3ccc(Cl)cc3)c(=S)[nH]c2c1`, the “hERG current change (%, negative = inhibition) at 10uM” value is given as 0.616%.
As to `CCCCc1nc(Cl)c(CO)n1Cc1ccc(-c2ccccc2-c2nnn[n-]2)cc1.[K+]`, the “hERG current change (%, negative = inhibition) at 10uM” value turned out to be 1.71%.
